Results as given in PubChem BioAssay AID1508623 (National Center for Advancing Translational Sciences (NCATS), 2021).
Out of some 48,000 compounds screened, about 450 (0.94%) were called active. Not shown: some 19% with an inconclusive outcome. Calls come from the whole dose curve; as a rule, active = well fitted inhibition curve with a large enough effect; inconclusive = small, poorly fitted or top-dose-only effect; inactive = no such curve, though single readings can be large or run the other way. The list shows a part of the results.

assay: Primary qHTS for Identification of Small Molecule Inhibitors of Huntingtin Promoter Activity; settings: HEK293 HTT promoter firefly luciferase reporter (activity 0% = vehicle and -100% = no light), 24 h; series mostly up to 57.5 µM; activity change, negative = inhibition: at the top concentration; note: nearly all actives have a fitted effect of over 50% in size
Procedure, shortened: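 Firefly luciferase readout (Dual-Glo, 10 min RT) after 24 h, 37 °C compound exposure (final up to 57.5 uM) of HEK293 reporter cells cultured 24 h beforehand; PTC124 at 50 uM final as control inhibitor; activity scaled vehicle 0%, zero RLU -100%.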

Activity change, negative = inhibition, inactive:
CCN(CC)CCNC(=O)Nc1ccc2c(c1)N(Cc1ccccc1)C(=O)c1ccccc1S2 -22.8%, NC(=O)c1ccc2nc(-c3ccc(Oc4ccc(Cl)cc4)cc3)[nH]c2c1 -3.54%, COc1ccc(N2CC(NC(=O)c3ccc(S(=O)(=O)N4CCOCC4)cc3)CC2=O)cc1OC (stereo not drawn) -17.1%, CCCCNC(=O)C1CCC(CNS(=O)(=O)c2ccc(Cl)cc2)CC1 (stereo not drawn) -1.57%, CNC1CCC(N(Cc2cccc(-c3ccncc3)c2)C(=O)c2sc3ccccc3c2Cl)CC1 (stereo not drawn) -16.6%, CC(=O)NCCn1c(SCC(=O)Nc2ccc(C)cc2)nc2ccccc2c1=O 14.6%, COc1cccc(-n2c(-c3cccc(F)c3)nc3c(cnn3-c3ccc(C)cc3)c2=O)c1 -27.5%, COc1ccccc1CNC(=O)CC(c1ccc(OC)c(OC)c1)N1Cc2ccccc2C1=O (stereo not drawn) -6.56%, CCc1cnc2c(c1SCC(=O)c1ccc(OC)cc1)c(=O)n(C)c(=O)n2C -23.4%, CCCCN(CCCC)C(=O)C1CCN(S(=O)(=O)c2cccc3nsnc23)CC1 -29.2%, CCN(Cc1ccccc1)c1ncnc2c1nnn2C -11.5%, Cc1ccccc1CN1C(=O)c2ccccc2Sc2ccc(C(=O)NC3CCCC3)cc21 -27.8%, O=S(=O)(NCc1ccc(Cl)cc1)c1ccc(-c2cnc(C3CC3)o2)cc1 -18.4%, O=C(NCc1ccc(F)cc1)c1cc(-c2ccc(Cl)cc2)n[nH]1 -6.41%, CCC(C)NC(=O)CCSc1nc(-c2ccc(OC)cc2)cc(C(F)(F)F)n1 (stereo not drawn) -29.3%, CCc1ccc(S(=O)(=O)c2nnn3c2nc(Nc2ccc(F)cc2)c2cc(Cl)ccc23)cc1 0.414%, O=C(O)c1cccc(Nc2ncnc3scc(-c4ccccc4)c23)c1 -21.4%, COc1ccc(NC(=O)c2cc(CN3CCCC3)on2)cc1Cl 50.3%, Nc1ccc(S(=O)(=O)Nc2ncccn2)cc1 8.11%, Cc1ccccc1C(=O)Oc1c(Sc2ccccc2)c(C)nn1C(C)(C)C -22.8%, Cc1ccc(C(=O)Nc2nnc(S(=O)(=O)N3CCc4ccccc43)s2)cc1 -15.5%, COc1ccc(CCNC(=O)Cn2ncc3c(=O)oc4ccccc4c32)c(OC)c1 -14.7%, CCOc1ccc(NC(=O)c2oc3ccccc3c2NC(=O)c2cc(C)cc(C)c2)cc1 -10.1%, CCOc1ccc(NC(=O)c2cnc(Nc3ccccc3OC)c3ccccc23)cc1 57.4%, COc1ccc(CC(=O)NCc2ccc3c(c2)CCN3C(=O)c2ccc(Cl)cc2)cc1 -13.9%, CCc1ccc2oc(-c3cc(NC(=O)c4cccnc4)cc(C)c3O)nc2c1 3.95%, CCOc1ccc(CCNC(=O)CCSCc2ccc(Cl)cc2)cc1OCC -29.1%, Cc1cccc(Cc2c(C)nc3nc(SCC(=O)NCc4ccccc4)nn3c2C)c1 -32.4%, CCOC(=O)CSc1nc2sc3c(c2c(=O)n1-c1ccccc1)CCC(C(C)(C)C)C3 (stereo not drawn) -10.3%, O=C(Nc1cccc(Br)c1)N1CCC(CN2CCCCCC2)CC1 -9.24%, COc1cccc(CNC(=O)CN(c2ccc(C(C)C)cc2)S(=O)(=O)c2c(C)noc2C)c1 -27.5%, CCOC(=O)c1sc(NC(=O)c2cc3nc(-c4ccccc4)cc(C(F)(F)F)n3n2)c(C(=O)OCC)c1C -11.4%, Cc1cc(C)cc(Oc2c(C(F)(F)F)oc3cc(OCC(=O)NC4CCCCC4)ccc3c2=O)c1 -13.8%, Cn1c(=O)oc2cc(S(=O)(=O)N3CCC(C(=O)Nc4ccc(F)c(Cl)c4)CC3)ccc21 -14.8%, CCOC(=O)N1CCc2c(sc3c2c(=O)n(-c2ccc(CC)cc2)c(=O)n3Cc2cccc(Cl)c2)C1 -6.8%, CCC1CN(C(=O)N2CCC(C(=O)NCCc3ccc(OC)c(OC)c3)CC2)c2ccccc2O1 (stereo not drawn) -14.2%, Cc1ccc(CNC(=O)CSc2c(C)cnc3c2c(=O)n(C)c(=O)n3C)cc1 35.6%, Cc1ccc(NC(=O)C2CCN(S(=O)(=O)c3cccc4nsnc34)CC2)cc1 -25.6%, CCn1cc(C(=O)OCC(=O)Nc2cc(Cl)ccc2C)c(=O)c2ccc(C)nc21 -6.45%, CCCCOc1ccc(C2C(=O)N(C3CCCCC3)CC(=O)N2C2CCCCC2)cc1 (stereo not drawn) -5.51%, Cc1ccc(C)c(N2CCN(C(=O)c3cc4cc5ccc(C)cc5nc4o3)CC2)c1 -6.18%, CCc1cccc(NC(=O)Cn2c(=O)n(CCCCCC(=O)NCc3ccc(F)cc3)c(=O)c3sccc32)c1 -29.8%, C=CCc1cc(OC)c(O)c(C(=O)NCCO)c1, CCn1nc(C)c2c(-c3ccccc3)cc(=O)n(C(C)C(=O)Nc3ccc(OC)c(OC)c3)c21 (stereo not drawn) -30.2%, COc1ccc(C2C=C(c3ccccc3)Nc3nc(NC(C)=O)nn32)cc1 (stereo not drawn) -10.8%, CCOC(=O)c1ccccc1NC(=O)CN(c1ccccc1)S(=O)(=O)c1ccc(OCC)cc1 -27.8%, Cc1cccc(NC(=O)Nc2cccs2)c1C -1.84%, CO[C@@]1(NC(=O)C(C(=O)O)c2ccc(O)cc2)C(=O)N2C(C(=O)O)=C(CSc3nnnn3C)CO[C@@H]21 (stereo partly drawn) 15.7%, CCCCCCc1c(C)c2c(cc(C)c3c(C)coc32)oc1=O 7.53%, Cc1ccc(C)c(NC(=O)Cn2ncc3c(C)n(Cc4ccc(F)cc4)c(C)c3c2=O)c1 -12.5%, N#C/C(=C\c1ccc(O)cc1)C(=O)NCC1CCCO1 (stereo not drawn) 20.2%, CC1=C(c2ccc(C)c(C)c2)S(=O)(=O)N(Cc2ccc(C(=O)NCc3ccccc3F)cc2)C1=O -37.9%, Cc1cc(C)cc(NC(=O)Cn2nnc(-c3ccccc3F)n2)c1 -17.8%, CCC1CCCCN1CCCNC(=O)c1ccc2c(c1)c(C)c(C)n2CC (stereo not drawn) -3.58%, Cc1ccc(C)c(OCC(=O)Nc2sc3c(c2C#N)CCCC3)c1C -21.2%, CCOC(=O)c1c(Nc2ccc(C)c(C)c2)nnc(-c2ccccc2)c1-c1ccccc1 -26.2%, O=C(NCCc1ccccc1)c1c[nH]c2ccc(S(=O)(=O)Nc3ccc(F)cc3F)cc2c1=O -12.8%, CCCC(=O)Nc1cc2nn(-c3ccc(OC)cc3)nc2cc1C 52.6%, COc1ccc(CNC(=O)CN2N=C(c3ccc(Cl)cc3)CCC2=O)cc1 0.0545%, Cc1cc(C)c(NC(=O)Cn2c(=O)n(CCC(C)C)c(=O)c3cccnc32)c(C)c1 7.21%, COc1ccc(-c2nn(C)c3sc(C(=O)NCCN(C)C)cc23)cc1OC 5.5%, CCc1ccc(C(=O)c2cn(CC(=O)NCCc3ccccc3)c3nc(C)ccc3c2=O)cc1 4.85%, COc1cccc(NC(=O)C2CCCN(c3ncnc4onc(-c5ccc(F)cc5)c34)C2)c1 (stereo not drawn) -9.24%, O=C(NCCSc1c[nH]c2ccccc12)c1ccc(Cl)cc1 -1.58%, Cc1ccc(N2CC(NC(=O)CCCc3ccccc3)CC2=O)cc1 (stereo not drawn) -18.9%, O=C(NCCc1ccccc1)c1ccc2c(c1)N(Cc1ccc(Cl)cc1)C(=O)c1ccccc1S2(=O)=O 3.31%, CCN(c1ccccc1C)S(=O)(=O)c1nnc(NC(=O)c2ccc(OC)c(OC)c2)s1 -25.7%, Cc1ccc(C2=Nc3ccccc3N=C(c3ccc(F)cc3)C2)c(O)c1 -3.37%, CCc1nc(SC)ncc1C(=O)NCc1cccc(Br)c1 -6.01%, O=C(Cn1nc(Cc2cccnc2)c2ccccc2c1=O)N1CCN(c2ccccc2F)CC1 -14.5%, Cc1ccc(Cl)cc1N1CCN(c2nc3ccc(C(=O)c4ccccc4)cc3n3cnnc23)CC1 -23.3%, COc1ccc(CNC(=O)c2ccc(CN3C(=O)C(C)=C(c4ccc(C)cc4)S3(=O)=O)cc2)cc1 -24.9%, Cc1ccc(-n2ncc(C(=O)Nc3ccc4c(c3)OCCO4)c2C2CCN(C(=O)OC(C)(C)C)CC2)cc1C -5.05%, CC1=C(C(=O)NCc2cccc(F)c2)C2(CCCCCC2)OC1=O -6.22%, COc1ccc(CNC(=O)c2cc(-c3ccc(Br)s3)nc3ccccc23)c(OC)c1 -19.4%, COc1ccc(Nc2nc3ccc(C)cc3nc2-n2nc(C)cc2C)cc1Cl -5.33%, COCCN1CCc2nc(SCC(=O)Nc3ccc(C)c(Cl)c3)[nH]c(=O)c2C1 0.714%, CCOc1ccccc1CNC(=O)Cn1c(=O)c2cccn2c2ccc(F)cc21 -2.71%, COc1ccc(-c2onc(C)c2C)cc1S(=O)(=O)NCc1cccs1 -17%, CCOC(=O)c1noc2ncn(CC(=O)Nc3ccc(F)cc3Cl)c(=O)c12 -5.19%, CC1=C(C(=O)OCc2ccc(C)cc2)C(c2ccccc2C(F)(F)F)CC(=O)N1 (stereo not drawn) -28.4%, CC1CCCCN1Cc1c(O)ccc2c(=O)c(-c3ccc(Cl)cc3)c(C(F)(F)F)oc12 (stereo not drawn) -18.6%, Cc1ccc(OCCSc2nc3ccccc3n2CC(=O)N2CCOCC2)cc1 -8.41%, CCOC(=O)c1sc2ncn(CC(=O)Nc3ccc(F)cc3F)c(=O)c2c1C -7.2%, COC(=O)c1c(NC(=O)c2ccc(Cl)c(Cl)c2)sc2c1CCCC2 8.51%, CCOc1ccc(NC(=O)CSc2nnc3scc(-c4ccccc4)n23)cc1 -31.7%, Nc1cc(C(F)(F)F)ccc1S -2.74%, O=C1CC[C@@H](C(=O)O)N1 4.78%, CCc1ccccc1NC(=O)c1cc(-c2ccc(Cl)s2)nc2ccccc12 -20.7%, COc1ccc(OC)c(CNC(=O)CCCn2c(=O)c3cccn3c3cccnc32)c1 -11.4%, COc1ccccc1-c1nnc(C2CCN(C(=O)c3ccccc3C)CC2)o1 -16.9%, Cc1cccc(-n2c(C)cc(C(=O)C(=O)Nc3nncs3)c2C)c1 5.85%, CCOC(=O)CSc1nc2ccc(NC(=O)c3ccc(Cl)cc3)cc2s1 12.4%, Cc1cc2c(cc1C1(c3ccc(C(=O)O)cn3)CC1)C(C)(C)CCC2(C)C -3.37%, COC(=O)c1ccc(NC(=O)C2CCN(c3ncnc4c3nc3n4CCCCC3)CC2)cc1 6.19%, Cc1cc(C)cc(NC(=O)CSc2c(C(C)C)cnc3c2c(=O)n(C)c(=O)n3C)c1 -6.71%, Cc1cc(Nc2nc3ccccc3c3nnc(C)n23)ccc1Br -22.2%, Cc1cc(C)cc(Nc2cc(C(=O)NC3CCCCC3)c3ccccc3n2)c1 -10.3%
